Source: PubChem BioAssay AID493208 (National Center for Advancing Translational Sciences (NCATS), 2011)
Screen size: about 44,000 compounds; about 340 (0.77%) were called active. Another 5% or so got no clear call; they are omitted. The call rests on the fitted dose curve; in most records, active means well fitted inhibition curve with a large enough effect; inconclusive means small, poorly fitted or top-dose-only effect; inactive means flat fitted curve, though single readings scatter. This is one part of the list.

experiment: Acumen qHTS Assay for Inhibitors of the mTORC1 Signaling Pathway in MEF (Tsc2-/-, p53-/-) Cells: Sytravon; conditions: phospho-rpS6 immunofluorescence/PI, 24 h; series mostly up to 38.3 µM; activity change, negative = inhibition: at the top concentration;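 further: plate controls were DMSO for no effect and rapamycin for full effect; nearly all actives have a fitted effect of over 50% in size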
Outline: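 Tsc2-/-, p53-/- MEFs (empty-vector stable line) in DMEM + 10% FBS were treated with compounds 24 h at 37 degree Celsius, fixed, and immunostained for phospho-rpS6 (Alexa-488) with propidium iodide counterstain. Laser-scanning cytometry gave % positive cells, normalized against 7.5 nM rapamycin and DMSO.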

Activity change, negative = inhibition, inactive:
CCOC(=O)C1CCN(C(=O)Cn2nc(C)n3c(cc4cc(F)ccc43)c2=O)CC1 -7.86%, COc1ccc(N2CCN(S(=O)(=O)CCNC(=O)Cc3ccc(Cl)cc3)CC2)cc1 -7.55%, CCn1cc(S(=O)(=O)c2cc(C)cc(C)c2)c(=O)c2cc(F)c(N3CCCC3)cc21 2.87%, CCCCN1C(=O)CN(C2CCCCCC2)C(=O)C1c1ccc(OCCC)c(OC)c1 (stereo unspecified) -1.71%, CCOc1ccc(CCNC(=O)c2nnc(Cc3cc(OC)c(OC)c(OC)c3)o2)cc1OCC 7.52%, Cc1ccccc1Cn1c(=O)n(Cc2ccc(Cl)cc2)c(=O)c2cccnc21 1.4%, COc1cc(Cl)c(C)cc1NC(=O)c1sc2nc3n(c(=O)c2c1C)CCCCC3 -0.369%, COc1ccc(OC)c(NC(=O)CSC2=Nc3ccccc3C3=NC(CC(=O)NCc4ccc5c(c4)OCO5)C(=O)N23)c1 (stereo unspecified) -0.185%, CCOC(=O)c1c(NC(=O)c2nc(SC(C)C)ncc2Cl)sc2c1CCCC2 0.999%, O=c1cc(N2CCN(c3ccc(F)cc3)CC2)[nH]c(=O)n1-c1ccc(Br)cc1 -1.69%, Cn1c(SCc2ccc(C(F)(F)F)cc2)nc2c([nH]c3ccccc32)c1=O 1.57%, COc1cc(C(=O)NCC(c2cccnc2)N2CCc3ccccc32)cc(OC)c1OC (stereo unspecified) -4.42%, CN(C)c1ccc(C(CNS(=O)(=O)c2ccccc2)N2CCc3ccccc32)cc1 (stereo unspecified) 0%, COc1cc(NC(=O)N2CCC(CN3CCCC3)CC2)cc(OC)c1OC 0.575%, CC(=O)c1c(C)oc2c(Cl)cc(NS(=O)(=O)c3ccc(Cl)cc3)cc12 -2.48%, CCN(CC)C(=O)Cn1c(=O)n(Cc2ccc(C(=O)NCc3ccccc3Cl)cc2)c(=O)c2ccccc21 -0.611%, COc1cc(C2C(=O)N(C3CCCCC3)CC(=O)N2Cc2ccc(C)cc2)ccc1OC(C)C (stereo unspecified) 2.46%, CCOC(=O)c1c(-c2ccc(Br)cc2)csc1NC(=O)c1ccccc1F -0.271%, Cc1ccc2c(C)c(C(=O)N(Cc3ccc(Cl)cc3)C3CCS(=O)(=O)C3)oc2c1 (stereo unspecified) -2.34%, O=C1[C@@H]2CSC(c3ccc(C(F)(F)F)cc3)N2C(=O)N1c1ccccc1 (stereo partly specified) 1.5%, CCCNc1c(NC(=O)c2ccc(OCCC)cc2)c(=O)oc2ccccc12 -17.7%, O=C1CN(C(=O)c2ccccc2C(F)(F)F)C(c2ccccc2)c2cc(F)ccc2N1 (stereo unspecified) 0.0315%, COc1cc2c(cc1OC)C(COc1ccc3c(C)cc(=O)oc3c1)N(C(=O)c1ccc(Cl)cc1)CC2 (stereo unspecified) -19.9%, CCC(C)(C)C1CCc2c(sc(NC(=O)C3c4ccccc4Oc4ccccc43)c2C(N)=O)C1 (stereo unspecified) -0.925%, CCCCC(CC)CNC(=O)C1CCN(S(=O)(=O)c2cccc3nsnc23)CC1 (stereo unspecified) 2.77%, Cc1ccc(C)c(N2CCN(CCCNC(=O)Cn3ncc4c5ccccc5n(C)c4c3=O)CC2)c1 -6.45%, COc1ccccc1N1CCN(C(=O)c2cc3c(=O)n(Cc4ccco4)ccc3nc2C)CC1 -8.65%, N#Cc1nc(-c2ccc(COc3ccc(Cl)cc3)o2)oc1N1CCN(c2ccccc2)CC1 -2.63%, Cc1ccc(NS(=O)(=O)c2c(C(=O)N3CCC(C)CC3)c(C)n(C)c2C)cc1Cl 10.8%, CCOc1ccc(NC(=O)CCn2cnc3onc(-c4ccc(F)cc4)c3c2=O)cc1 -0.703%, Cc1ccc(CN2CCSc3ccc(C(=O)N4CCN(c5cc(C)ccc5C)CC4)cc32)cc1 -13.4%, O=C(CSc1nc2c(oc3ccccc32)c(=O)n1-c1ccccc1F)Nc1ccccc1 -8.11%, CCOC(=O)c1c(S(=O)(=O)N2CCCC(C(=O)N3CCN(c4cccc(C)c4C)CC3)C2)c(C)n(C)c1C (stereo unspecified) -1.85%, Cc1ccc(Nc2c3c(nc4nncn24)CCC3)cc1C -2.08%, CC(C)CN1CCc2nc(N3CCN(C)CC3)ncc2C1 7.16%, O=C(CN1C(=O)COc2ccc(S(=O)(=O)N3CCOCC3)cc21)NCc1ccc(F)cc1 5.16%, CCOc1cc(S(=O)(=O)n2ccnc2C(C)C)ccc1Cl -3.43%, CCn1cc(C(=O)N2CCN(c3ccccc3F)CC2)c(=O)c2cc(S(=O)(=O)N(C)C3CCCCC3)ccc21 -2.01%, COc1ccc(-c2cc3ccc(O)c(CN4CCOCC4)c3oc2=O)cc1 -0.588%, CC(=O)N1CCc2cc(Br)cc(S(=O)(=O)N3CCC(C(=O)N(C)c4cc(C)ccc4C)CC3)c21 5.03%, Cc1cccc(NC(=O)CSc2nc(-c3ccco3)nc3cc(=O)[nH]n23)c1 5.73%, COc1cc(NC(=O)c2ccccc2)ccc1NC(=O)c1cc2ccccc2o1 9.23%, COC(=O)c1c(SC)nc2ccccc2c1OCc1ccccc1C 9.67%, COc1ccc(-c2ccc3c(N)c(C(=O)NCc4ccc(Cl)cc4)sc3n2)cc1 -18.5%, O=C(CCn1c(=O)c2ccccc2n(Cc2ccc(F)cc2Cl)c1=O)NCc1ccc2c(c1)OCO2 -4.06%, CCc1ccc(NC(=O)C2CCN(S(=O)(=O)c3ccc4[nH]c5c(c4c3)CCCCC5)CC2)cc1 -6.95%, Cc1cccc(C)c1NC(=O)Cn1c(=O)n(CC2CCC(C(=O)NCCc3ccccc3)CC2)c(=O)c2ccccc21 (stereo unspecified) -3.67%, CCOC(=O)c1noc2ncnc(Nc3ccc(F)cc3F)c12 -2.93%, CCOC(=O)C1CCN(C(=O)C2CCN(C3=NS(=O)(=O)C(c4ccc(C)cc4)=C3CC)CC2)CC1 -5.06%, CCOC(=O)CSc1nc2c(sc3ccccc32)c(=O)n1CCc1ccccc1 3.65%, Cc1ccc(CNC(=O)C2CCN(c3nc4ccccc4n(C)c3=O)CC2)cc1 -4.45%, O=[N+]([O-])c1cc(-c2nc(-c3ccccc3)no2)ccc1N1CCN(c2ccccc2)CC1 -1.18%, CC(=O)c1ccc(S(=O)(=O)Nc2cccc(-c3ccc(N4CCCCC4)nn3)c2)cc1 3.03%, Cn1cc(S(=O)(=O)N2CCCCCC2)cc1C(=O)N1CCN(c2cccc(Cl)c2)CC1 4.36%, Cc1ccc(NC(=O)Cn2nnc(-c3nc(-c4ccncc4)no3)c2N)cc1 -2.09%, Cc1ccc(C(=O)O)cc1Nc1nc2ccccc2n2nnnc12 -8.49%, CCCOc1ccc(CNC(=O)C(CC)n2nc(C)c3sc4ccccc4c3c2=O)cc1 (stereo unspecified) -3.99%, CCOc1ccc2nc(C)cc(Nc3ccccc3OCC)c2c1 21%, COCCNC(=O)c1c(C)oc2nc(C)nc(N3CCOCC3)c12 -2.61%, CCOC(=O)c1c(NC(=O)c2ccccc2Cl)sc2c1CCCC2 -18.7%, Cc1ccc(-c2nnc(SCc3ccccc3C#N)o2)cc1 -5.26%, COc1cccc(-c2nc(CS(=O)(=O)CC(=O)NCc3ccc(C)cc3)c(C)o2)c1 -0.593%, CCOc1cc(-c2nc3c(c(CC)nn3-c3ccccc3)c3cc(OC)c(OC)cc23)ccc1O 11.5%, Cc1cccc(OCC(=O)OCc2cc(=O)n3nc(C4CCCCC4)sc3n2)c1 -9.64%, CCOC(=O)C(CC)n1nc(C)n2c(cc3occc32)c1=O (stereo unspecified) -2.19%, COc1ccc(C(=O)COC(=O)c2cccc(NC(=O)c3ccc(OC)c(OC)c3)c2)cc1 -18.1%, COc1ccc(C(=O)c2cn(Cc3ccc(F)cc3)c3ccc(C)cc3c2=O)cc1 -8.93%, Cc1csc2nc(-c3cccc(NC(=O)c4ccccc4Cl)c3)cn12 -32.9%, Cc1ccc(-c2nc3ccccn3c2Nc2ccc3c(c2)OCO3)cc1 -14%, O=C(NC1CCCCCC1)C1CCN(C(=O)N2CCOc3ccccc32)CC1 -2.23%, Cc1ccc(S(=O)(=O)NCC(c2ccc(N(C)C)cc2)N2CCOCC2)cc1 (stereo unspecified) 7.88%, COc1cc(OC)c(N(C)C(=O)Cn2ncc3c([nH]c4ccccc43)c2=O)cc1Cl 0.677%, O=c1c2cc3c(cc2nc2sc(Nc4ccc(F)c(Cl)c4)nn12)OCO3 -1.51%, Cc1nc(C)c(-c2ccc(SCC(=O)Nc3ccc(F)c(F)c3)nn2)s1 -7.79%, COc1cc(/C=C(\C#N)c2nc3ccccc3n2C)cc(OC)c1OC 3.1%, Cc1ccc(NC(=O)c2cc(S(=O)(=O)N3CCCC(C)C3)cn2C)c(Br)c1 (stereo unspecified) -4.85%, CCOc1ccc(CNC(=O)c2cc3ccccn3n2)cc1OC 0%, Cn1c(=O)c2c(-c3cccc(Br)c3)n(CCO)cc2n(C)c1=O 1.2%, CCN1CCN(c2oc(/C=C/c3ccccc3OC)nc2C#N)CC1 -8.22%, CCOC(=O)c1c(-c2ccc(C)cc2)csc1NC(=O)c1nc(SCC)ncc1Cl 5.71%, COc1cccc(NS(=O)(=O)c2ccc3[nH]cc(C(=O)N4CCCCCC4)c(=O)c3c2)c1 -14.7%, CC1CCN(CCCNC(=O)c2cc(Sc3ccc(F)cc3)nc3ccccc23)CC1 -17.3%, CCc1ccc(CN(Cc2cn[nH]c2-c2ccc(OC)cc2)C(=O)Nc2ccc(C)c(F)c2)cc1 -0.09%, Nc1cccc(-c2cn3ccsc3n2)c1 -0.663%, CCOC(=O)c1c(-c2ccccc2)oc2ccc(NS(=O)(=O)c3ccc(C)cc3C)cc12 -0.616%, COc1ccc(Cn2c(=O)c3cccnc3n(Cc3cccc(OC)c3)c2=O)cc1 -8.01%, O=C(NC1CC(=O)N(c2cccc(F)c2)C1)C1CC1 (stereo unspecified) 3.32%, Cc1ccc(NC(=O)c2oc3ccccc3c2NC(=O)c2ccccc2C)cc1 -10.6%, CSc1nnc(NC(=O)Cc2coc3cc(C)ccc23)s1 -0.397%, Cc1cc(C)c(NC(=O)CSc2ccc(-c3sc(-c4ccccc4)nc3C)nn2)c(C)c1 0.955%, Cc1cc(C)c(NC(=O)CSc2nc3nc(C)cc(C)n3n2)c(C)c1 4.38%, CCN(CC)c1cc(C)c2cc(NC(=O)c3ccccc3OC)ccc2n1 -22.9%, CCCCn1c(SCC(=O)NCCCOC)nc2c(sc3ccccc32)c1=O -1.69%, CCn1c(=O)c2sccc2n2c(CCCC(=O)N3CCN(c4cc(Cl)ccc4C)CC3)nnc12 -1.55%, O=C(CSc1nc(-c2ccc(F)cc2)[nH]c1-c1ccccc1)NCC1CCCO1 (stereo unspecified) -12.4%, COc1ccc(-c2nnc(SCC(=O)NCc3ccc(C)cc3)nc2-c2ccc(OC)c(OC)c2)cc1OC -0.0959%
